PubChem BioAssay AID280 (DTP/NCI, 2004)
Inconclusive results and toxic doses are left out. A number of entries come with more than one value. This is not the full list of results. The source may hold further records. The values listed for one entry repeat one measurement across runs, samples, wells, individuals or studies.

Test system: nude mice, LOX melanoma ip, survival T/C
Experiment: NCI In Vivo Anticancer Drug Screen. Data for tumor model Human Amelanotic Melanoma (LOX) (intraperitoneal) in NU/NU BALB/C (nude) mice
Settings: endpoint: median survival time, higher = longer survival
Procedure: The antitumor activity of compounds was measured in mice bearing transplantable tumors. Survival or tumor size were measured and the results are expressed as the measurement made in the treated group (T) divided by the measurement made in the vehicle treated control group (C). The tumor model used in this assay is Human Amelanotic Melanoma (LOX) (intraperitoneal) in NU/NU BALB/C (nude) mice

O=C1C=CC(=CC=C2C=CN(CCCCCCCCCCCO)C=C2)C=C1
T/C (dose: 167.0 mg/kg/injection, schedule: Q04DX003 (ip), vehicle: saline with Tween-80): 120 % of control and 172 % of control
T/C (dose: 278.0 mg/kg/injection, schedule: Q04DX003 (ip), vehicle: saline with Tween-80): 114 % of control and 162 % of control

Cn1cc(C2NC(=O)c3ccccc3N2)c2ccccc21 (stereo not drawn)
T/C (dose: 600.0 mg/kg/injection, schedule: Q04DX003 (ip), vehicle: Klucel (hydroxypropylcellulose) (HPC)): 106 % of control and 161 % of control
T/C (dose: 1200.0 mg/kg/injection, schedule: Q04DX003 (ip), vehicle: Klucel (hydroxypropylcellulose) (HPC)): 93 % of control and 320 % of control

CCCCCCCCCCCCCCCCCCOCC(CO)OC (stereo not drawn)
T/C (dose: 75.0 mg/kg/injection, schedule: Q04DX003 (ip), vehicle: saline with Tween-80): 120 % of control and 171 % of control

CN=C(NC)c1ccc(NC(=O)/C=C\c2ccc(/C=C/C(=O)Nc3ccc(C(=NC)NC)cc3)cc2)cc1
T/C (dose: 6.25 mg/kg/injection, schedule: Q04DX003 (ip), vehicle: Klucel (hydroxypropylcellulose) (HPC)): 105 % of control and 184 % of control

CN=C(N)N/N=C(\C)c1ccc2oc3ccc(/C(C)=N/NC(N)=NC)cc3c2c1
T/C (dose: 50.0 mg/kg/injection, schedule: Q04DX003 (ip), vehicle: Klucel (hydroxypropylcellulose) (HPC)): 97 % of control, 108 % of control, 158 % of control

CC(O)CCC(=O)c1ccoc1 (stereo not drawn)
T/C (dose: 18.0 mg/kg/injection, schedule: Q01DX001 (ip), vehicle: propolene glycol): 107 % of control, 121 % of control, 151 % of control

CC(=O)NC(CCc1ccc(Cl)c(Cl)c1)c1cccc(O)c(=O)c1 (stereo not drawn)
T/C (dose: 144.0 mg/kg/injection, schedule: Q04DX003 (ip), vehicle: Klucel (hydroxypropylcellulose) (HPC)): 105 % of control and 153 % of control

CC(/C=C/C=C/C=C/C=C/C=C/C(O)=C1/C(=O)C(CCC(=O)O)N(C)C1=O)=C\C(C)C(OC1CC(O)C(O)C(C)O1)C(C)C (stereo not drawn)
T/C (dose: 64.0 mg/kg/injection, schedule: Q04DX003 (ip), vehicle: water): 121 % of control and 187 % of control

Cc1c(O)/c(=C\O)c2nc3c(=O)ccc(C(=O)NCCN(C)C)c3[nH]c2c1=O
T/C (dose: 200.0 mg/kg/injection, schedule: Q04DX003 (ip), vehicle: water): 116 % of control and 169 % of control

COc1c(O)cc2c(c1OC)-c1ccc(SC)c(=O)cc1C(NC(C)=O)CC2 (stereo not drawn)
T/C (dose: 1.25 mg/kg/injection, schedule: Q04DX003 (ip), vehicle: Klucel (hydroxypropylcellulose) (HPC)): 118 % of control and 152 % of control
T/C (dose: 2.5 mg/kg/injection, schedule: Q04DX003 (ip), vehicle: Klucel (hydroxypropylcellulose) (HPC)): 106 % of control and 152 % of control
